Results reported in US12371752B2 (priority 2019, dated 2025).

Biological target: influenza virus-derived neuraminidase (Influenza A virus, UniProt P03468)
Chain of UniProt P03468 (P03468 whole entry, looked up): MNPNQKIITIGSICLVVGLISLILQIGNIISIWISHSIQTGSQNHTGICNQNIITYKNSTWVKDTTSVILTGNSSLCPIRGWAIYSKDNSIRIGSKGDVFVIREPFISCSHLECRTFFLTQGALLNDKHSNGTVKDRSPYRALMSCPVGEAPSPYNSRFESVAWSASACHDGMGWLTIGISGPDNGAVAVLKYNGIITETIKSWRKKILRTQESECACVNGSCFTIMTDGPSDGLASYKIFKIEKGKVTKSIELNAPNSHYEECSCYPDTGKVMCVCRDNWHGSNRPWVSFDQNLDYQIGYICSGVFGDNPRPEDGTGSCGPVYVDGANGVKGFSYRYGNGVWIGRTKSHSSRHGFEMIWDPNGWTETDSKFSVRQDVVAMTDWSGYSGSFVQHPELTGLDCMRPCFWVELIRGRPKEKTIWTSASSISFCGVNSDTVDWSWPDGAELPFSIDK

SMILES | change in fluorescence intensity with elapsed time
CC(=O)N[C@H]1[C@H]([C@H](O)[C@H](O)CO)O[C@@](Oc2ccc(COc3ccc4c(c3)Oc3cc(NCC(F)(F)F)ccc3C43OCc4ccccc43)cc2)(C(=O)O)C[C@@H]1O (some centres unmarked) [HMRef-S-Neu5Ac] | no change
CC(=O)N[C@@H]1[C@@H](O)C[C@](Oc2ccc3c(C)cc(=O)oc3c2)(C(=O)O)O[C@H]1C(O)[C@H](O)CO (stereo partly drawn) [4MU-NANA, 2′-(4-methylumbelliferyl)-α-D-N-acetylneuraminic acid, reference compound] | increased over time
